This is one part of the list.
Tested on: S. aureus RN4220
Test: growth inhibition call (relative growth <= 0.2)
Details: 50 µM

SMILES	growth inhibition call
Cc1ccc(-c2ccc3c(c2)O[C@H](CN(C)C(=O)Nc2ccc(C(F)(F)F)cc2)[C@H](C)CN([C@H](C)CO)S3(=O)=O)cc1	inactive
CC(C)NC(=O)Nc1ccc2c(c1)C(=O)N([C@@H](C)CO)C[C@H](C)[C@H](CN(C)C(=O)Nc1ccc(F)cc1)OCCCC[C@@H](C)O2	inactive
CN(Cn1[nH]c(=O)ccc1=O)c1ccccc1	inactive
C[C@@H]1CN([C@H](C)CO)C(=O)Cc2cc(NC(=O)Cn3cnnn3)ccc2O[C@H]1CN(C)C(=O)Nc1ccccc1	inactive
CCC=C(C(=O)NC1C(=O)N2C(C(=O)OCOC(=O)C(C)(C)C)=C(COC(N)=O)CSC12)c1csc(N)n1.Cl (stereo not given)	inactive
Cc1noc(C)c1NC(=O)Nc1cccc2c1O[C@@H](CN(C)S(C)(=O)=O)[C@H](C)CN([C@H](C)CO)C2=O	inactive
COc1ccc(NC(=O)Nc2ccc3c(c2)C(=O)N([C@@H](C)CO)C[C@H](C)[C@@H](CN(C)Cc2ccc(C(F)(F)F)cc2)OCCCC[C@H](C)O3)cc1	inactive
CCCCNC(=O)N1C[C@@H]2[C@H](CN)[C@@H]2C1	inactive
NS(=O)(=O)c1ccc(NC(=O)[C@H]2CCCNC2=O)cc1	inactive
C[C@H]1CCCCO[C@@H](CN(C)C(=O)CCC(F)(F)F)[C@@H](C)CN([C@@H](C)CO)C(=O)c2cc(NC(=O)c3ccccc3)ccc2O1	inactive
CC(C)(Sc1ccc(CCN(CCCCC2CCCCC2)C(=O)NC2CCCCC2)cc1)C(=O)O	active
CCCC(=O)Nc1ccc2c(c1)C(=O)N(C)C[C@@H](OC)[C@H](C)CN(S(=O)(=O)c1cn(C)cn1)[C@@H](C)CO2	inactive
C[C@H](CO)N1C[C@H](C)[C@H](CN(C)Cc2ccc3c(c2)OCO3)Oc2ncc(Br)cc2C1=O	inactive
C[C@H]1CN([C@@H](C)CO)C(=O)c2cccc(NC(=O)C3CCOCC3)c2O[C@H]1CN(C)S(=O)(=O)c1ccc(F)cc1	inactive
C[C@@H]1CCCCO[C@H](CN(C)S(=O)(=O)c2cn(C)cn2)[C@H](C)CN([C@@H](C)CO)C(=O)c2cc(NC(=O)Nc3cccc4ccccc34)ccc2O1	inactive
COc1ccc([Si](C)(C)[C@@H]2[C@@H](CC(=O)N3Cc4ccccc4C[C@H]3CO)O[C@]3(C(=O)N(Cc4cccc(N5C(=O)c6cccc7cccc5c67)c4)c4ccccc43)[C@H]2C)cc1	inactive
COc1ccc(S(=O)(=O)N(C)C[C@H]2Oc3c(NC(=O)c4cc(C)nn4C)cccc3C(=O)N([C@@H](C)CO)C[C@H]2C)cc1	inactive
COc1ccc(NC(=O)Nc2ccc3c(c2)C(=O)N([C@@H](C)CO)C[C@@H](C)[C@H](CN(C)S(=O)(=O)c2ccccc2)OCCCC[C@H](C)O3)cc1	inactive
COCC(=O)Nc1ccc2c(c1)C(=O)N(C)C[C@@H](OC)[C@@H](C)CN(C(=O)Cc1ccccn1)[C@@H](C)CO2	inactive
CC(C)(C)OC(=O)CC[C@@]12N=C(c3ccc(OCCCO)cc3)O[C@@H]1c1ccccc1CN(Cc1ccccc1)C2=O	inactive

SMILES	growth inhibition call
NC(=O)c1ccc(CN2CCOCC2)cc1	inactive
O=C(N[C@@H]1CC[C@@H](CC(=O)N2CCOCC2)O[C@@H]1CO)c1ccc2c(c1)OCO2	inactive
CO[C@H]1CN(C)C(=O)c2cc(NC(=O)NC(C)C)ccc2OC[C@H](C)N(Cc2ccc(-c3ccccn3)cc2)C[C@@H]1C	inactive
O=C(COc1ccccc1)N1CCNC1=O	inactive
COc1ccc(S(=O)(=O)N(C)C[C@@H]2Oc3ccc(NC(=O)C4CC4)cc3CC(=O)N([C@H](C)CO)C[C@H]2C)cc1	inactive
COc1ccc(NC(=O)Nc2ccc3c(c2)CC(=O)N([C@H](C)CO)C[C@@H](C)[C@H](CN(C)S(C)(=O)=O)O3)cc1	inactive
COc1ccc(CN(C)C[C@H]2OCCCC[C@H](C)Oc3ccc(NC(=O)NC(C)C)cc3C(=O)N([C@H](C)CO)C[C@H]2C)cc1	inactive
CC(C)NC(=O)N(C)C[C@@H]1Oc2ccc(NC(=O)Cc3ccccc3)cc2C(=O)N([C@@H](C)CO)C[C@@H]1C	inactive
C[C@H](CO)N1C[C@H](C)[C@H](CN(C)C(=O)Nc2ccc(C(F)(F)F)cc2)Oc2ccc(NC(=O)Nc3cccc4ccccc34)cc2CC1=O	inactive
C[C@@H]1CO[C@]2(O[C@H]3C[C@H]4[C@H]5C[C@H](O[C@H]6O[C@@H](C)[C@@H](O)[C@@H](O[C@@H]7O[C@@H](C)[C@H](O)[C@@H](O)[C@H]7O)[C@@H]6O)[C@H]6C[C@@H](O)CC[C@]6(C)[C@@H]5CC[C@]4(C)[C@H]3[C@@H]2C)[C@@H](O)C1	inactive
C[C@H]1CN([C@@H](C)CO)S(=O)(=O)c2ccc(C#CC3CC3)cc2O[C@H]1CN(C)Cc1cccc(F)c1	inactive
CCS(=O)(=O)Nc1ccc2c(c1)C(=O)N(C)[C@H]1CC[C@H](CC(=O)Nc3ccccc3C)O[C@@H]1CO2	inactive
C[C@@H]1CCCCO[C@@H](CN(C)Cc2ccc3c(c2)OCO3)[C@@H](C)CN([C@@H](C)CO)C(=O)c2cc(NC(=O)Nc3ccccc3)ccc2O1	inactive
C[C@H]1CN([C@@H](C)CO)C(=O)c2cc(C#Cc3ccccc3F)cnc2O[C@@H]1CN(C)S(=O)(=O)c1ccccc1	inactive
COc1ccc(S(=O)(=O)N[C@H]2C=C[C@@H](CC(=O)NCCc3ccncc3)O[C@H]2CO)cc1	inactive
CCCN1C(C)=C(C(=O)OC)[C@@H](c2cccc([N+](=O)[O-])c2)C(C(=O)ON2CCC(c3ccccc3)(c3ccccc3)CC2)=C1C	inactive
Cc1cc(C(=O)Nc2cccc3c2O[C@@H](CN(C)S(=O)(=O)c2c(C)noc2C)[C@@H](C)CN([C@H](C)CO)C3=O)n(C)n1	inactive
CN(C)C(=O)c1cccc(-c2ccc3n(c2=O)C[C@H]2[C@H](CO)[C@@H](C(=O)NCC4CC4)N[C@@H]32)c1	inactive
CC(C)NC(=O)N(C)C[C@@H]1Oc2ccc(NC(=O)c3ccncc3)cc2CC(=O)N([C@H](C)CO)C[C@@H]1C	inactive
NCC(=O)N1C[C@H](NC(=O)c2ccccc2)C[C@H]1C(=O)O	inactive
